According to PubChem BioAssay AID1259400 (National Center for Advancing Translational Sciences (NCATS), 2018):
Screen size: about 350,000 compounds; about 2,100 (0.6%) were called active. Inconclusive results, whose numbers are uncertain, are shown with a selection of clear calls.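 How the source made its calls: active means activity change of -60% or lower, but not beyond a set lower limit; inconclusive means change between -60% and -40%, or beyond the set limit; inactive means change above -40%.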
On the % scale 0 is the no-effect control and ±100 the full control effect.

The compounds below were run against Relaxin receptor 1 (Homo sapiens) (UniProt Q9HBX9) (assay: qHTS Assay for Antagonists of the Relaxin Receptor RXFP1). Conditions: HEK293-RXFP1, relaxin-stimulated cAMP HTRF, 30 min; at 57.5 µM; hits give low values.
Sequence of UniProt Q9HBX9 (Q9HBX9 whole entry, looked up): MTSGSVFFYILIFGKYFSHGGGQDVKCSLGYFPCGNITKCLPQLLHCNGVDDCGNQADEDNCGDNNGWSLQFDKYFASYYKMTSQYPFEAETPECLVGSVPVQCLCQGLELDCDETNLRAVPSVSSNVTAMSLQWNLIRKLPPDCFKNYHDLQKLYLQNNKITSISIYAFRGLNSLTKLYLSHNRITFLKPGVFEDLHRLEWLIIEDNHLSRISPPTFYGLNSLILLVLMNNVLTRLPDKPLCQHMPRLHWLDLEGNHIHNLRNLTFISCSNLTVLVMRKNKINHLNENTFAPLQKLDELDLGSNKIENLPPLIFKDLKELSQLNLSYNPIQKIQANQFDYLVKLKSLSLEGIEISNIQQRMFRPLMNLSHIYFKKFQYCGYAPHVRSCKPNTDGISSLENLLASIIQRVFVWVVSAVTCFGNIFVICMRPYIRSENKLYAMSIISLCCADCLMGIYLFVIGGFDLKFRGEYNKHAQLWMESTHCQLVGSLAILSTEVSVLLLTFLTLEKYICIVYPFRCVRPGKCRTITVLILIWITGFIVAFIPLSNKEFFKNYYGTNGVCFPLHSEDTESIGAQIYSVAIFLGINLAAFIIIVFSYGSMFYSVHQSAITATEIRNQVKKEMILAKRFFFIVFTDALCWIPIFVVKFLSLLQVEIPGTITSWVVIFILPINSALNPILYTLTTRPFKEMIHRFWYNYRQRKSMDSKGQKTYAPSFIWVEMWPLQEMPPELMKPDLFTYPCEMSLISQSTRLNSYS
For `Cc1ccc(Cl)cc1-n1ncc2c(N3CCN(Cc4ccccc4)CC3)ncnc21`, the activity change, negative = inhibition was active: -81.5%. In the case of `CN(C)S(=O)(=O)c1ccc(C(=O)NCCSc2c(-c3ccccc3)[nH]c3ccccc23)cc1`, the activity change, negative = inhibition was inactive: -17.5%. In the case of `CC(C)(C)C1CCc2oc3ccc(NS(=O)(=O)c4ccc(C(=O)O)cc4)cc3c2C1` (configuration not stated), the activity change, negative = inhibition was inconclusive: -42.9%. With `O=C(N/N=C/c1ccc(O)cc1)c1nc(-c2ccccc2)n(-c2ccccc2)n1` the activity change, negative = inhibition was inconclusive: -46.1%. With `Cc1[nH]n(-c2ccc(Cl)cc2)c(=O)c1C(=O)c1ccccc1` the activity change, negative = inhibition was inconclusive: -57.8%. For `CSc1nc2nc(C)c(C/C=C/c3ccccc3)c(=O)n2[nH]1`, the activity change, negative = inhibition was inconclusive: -44.6%. `C(=N\Nc1nc2ccccc2s1)/c1cccs1` was tested, and the activity change, negative = inhibition was inconclusive: -44.8%. For `Fc1ccccc1/C=N/N1CCN(Cc2ccccc2Cl)CC1`, the activity change, negative = inhibition was inconclusive: -42%. With `O=C(Nc1ccc(Br)cc1F)c1cc(S(=O)(=O)NC2CCCCC2)ccc1F` the activity change, negative = inhibition was inconclusive: -56%. In the case of `CN(C)CCNc1nc2sc3c(c2c(=O)n1Cc1ccccc1)CCCCC3`, the activity change, negative = inhibition was active: -91.7%. For `O=C(CCOc1ccccc1)N(Cc1cccnc1)c1nc2ccc(Cl)cc2s1`, the activity change, negative = inhibition was inactive: 0.968%. With `CCN(CC)c1ccc(/C=N/NC(=O)CNC(=O)C2COc3ccccc3O2)c(O)c1` (configuration not stated) the activity change, negative = inhibition was inconclusive: -48.6%. `CSc1nnc2c3ccccc3n(CCc3ccccc3)c2n1` was tested, and the activity change, negative = inhibition was inactive: 7.19%. In the case of `Cc1c(NC(=S)N/N=C/C=C/c2ccccc2)c(=O)n(-c2ccccc2)n1C`, the activity change, negative = inhibition was inconclusive: -55.6%. `COc1ccc(S(=O)(=O)Nc2ccc3oc4c(c3c2)CCCC4)cc1` was tested, and the activity change, negative = inhibition was inconclusive: -43%. For `O=C(O)CCCCCN=Cc1c(O)c2ccccc2oc1=O`, the activity change, negative = inhibition was inconclusive: -41.3%. For `O=C(CCC1N=C2c3ccccc3N=C(SCc3ccc(F)cc3)N2C1=O)NCCc1ccccc1` (configuration not stated), the activity change, negative = inhibition was inconclusive: -46.3%. With `CCOC(=O)C1(Cc2cccc(Cl)c2)CCCN(C(=O)CCOC)C1` (configuration not stated) the activity change, negative = inhibition was inconclusive: -41.5%. `CCOC(=O)c1noc2nc(C)n(CC(=O)NC(C)CC)c(=O)c12` (configuration not stated) was tested, and the activity change, negative = inhibition was inactive: -16.9%. `COc1ccc(OC(C)C(=O)Nc2ccc([N+](=O)[O-])cc2)cc1` (configuration not stated) was tested, and the activity change, negative = inhibition was inconclusive: -44.1%. In the case of `O=C1NCN(c2ccccc2)C12CCN(CCCC(c1ccc(F)cc1)c1ccc(F)cc1)CC2`, the activity change, negative = inhibition was inconclusive: -58.2%. With `Clc1ccc(-c2noc(CN3CCN(c4ccccc4)CC3)n2)cc1` the activity change, negative = inhibition was inconclusive: -50.8%. For `CS(=O)(=O)N(CC(=O)Nc1cccc(Br)c1)Cc1ccccc1`, the activity change, negative = inhibition was inconclusive: -53.3%. `N=c1c(C(=O)NCc2ccco2)cc2c(=O)n3ccccc3nc2n1Cc1ccc(Cl)cc1` was tested, and the activity change, negative = inhibition was inactive: 21.5%. With `CCn1cc(CNCc2c(C(=O)N3CCCCC3)nc3c(C)cccn23)cn1` the activity change, negative = inhibition was inconclusive: -43%. With `CCOc1ccc2c(c1)OC(c1ccc(OC)cc1)(C(F)(F)F)NC2=O` (configuration not stated) the activity change, negative = inhibition was inconclusive: -51.2%. With `CCOc1cc(C(=S)N2CCCC2)ccc1OCc1ccccc1` the activity change, negative = inhibition was inconclusive: -45.4%. For `COC(=O)c1ccc(/C=C/C(=O)OCC(=O)NCc2cccs2)cc1`, the activity change, negative = inhibition was inactive: -7.05%. For `CN(C(=O)CN1C(=O)/C(=C/c2ccccc2Cl)SC1=S)C1CCS(=O)(=O)C1` (configuration not stated), the activity change, negative = inhibition was inactive: -8.41%. With `CCOC(=O)/C(C#N)=C\c1ccc(O)c(OC)c1` the activity change, negative = inhibition was inconclusive: -46.3%. With `COc1ccc(CN2CCCN(S(=O)(=O)c3ccc(Br)cc3)CC2)cc1` the activity change, negative = inhibition was inactive: -16.7%. `Cc1ccc(C)c(C(=O)COC(=O)c2n[nH]c3ccccc23)c1` was tested, and the activity change, negative = inhibition was inconclusive: -45%. For `COCc1ccc(C(=O)N(C)CC2CCCN(CCc3ccc(OC)cc3)C2)o1` (configuration not stated), the activity change, negative = inhibition was inactive: -4.88%. In the case of `O=C(Nc1cccc(Cl)c1)c1cccc(Oc2ccc([N+](=O)[O-])cc2Cl)c1`, the activity change, negative = inhibition was inactive: 1.12%. In the case of `COc1ccc(Cl)cc1NC(=O)CN1CCN(Cc2ccccc2)CC1`, the activity change, negative = inhibition was inconclusive: -42.4%. In the case of `CCN=c1sc2ccccc2n1CC(O)COc1ccccc1` (configuration not stated), the activity change, negative = inhibition was active: -67.9%. For `O=C(CCN1C(=O)/C(=C/c2cccs2)SC1=S)Nc1cccc(O)c1`, the activity change, negative = inhibition was inconclusive: -46.5%. For `Cc1ccc(C)c(NC(=O)CN(C)C(=O)c2cccc(S(=O)(=O)N3CCN(Cc4ccccc4)CC3)c2)c1`, the activity change, negative = inhibition was inconclusive: -52.3%. `O=c1[nH]c(NC2CCN(S(=O)(=O)c3ccccc3C(F)(F)F)CC2)nc2c1CCCC2` was tested, and the activity change, negative = inhibition was inconclusive: -48%. With `CCc1nc2sc3c(c2c(=S)[nH]1)CC(C)(C)OC3` the activity change, negative = inhibition was active: -66%. `CCC1Oc2ccccc2C(=O)N(CC(=O)c2ccc3c(c2)OCCO3)C1=O` (configuration not stated) was tested, and the activity change, negative = inhibition was inconclusive: -56.4%. For `Cc1nc2cccnc2n1-c1cccc(C(=O)N2CCN(c3cccc(Cl)c3)CC2)c1`, the activity change, negative = inhibition was active: -63.8%. For `COc1ccc(-c2nnc(SCC(=O)NCCc3ccc(OC)c(OC)c3)nc2-c2ccc(OC)cc2)cc1`, the activity change, negative = inhibition was inactive: -9.08%. With `O=C(Nc1ccc2c(c1)OCO2)c1cccs1` the activity change, negative = inhibition was inactive: 17.1%. In the case of `CCc1ccc(NC(=O)N2CCOc3ccc(Cl)cc32)cc1`, the activity change, negative = inhibition was inconclusive: -54.7%. `Cc1ccc(NC(=O)Cc2ccc(-n3c(C)nc4cccnc43)cc2)c(Cl)c1` was tested, and the activity change, negative = inhibition was inconclusive: -53.1%. In the case of `Cc1cc(N2CCOCC2)ccc1/C=C\[N+](=O)[O-]`, the activity change, negative = inhibition was inconclusive: -54.9%. For `COc1cc(C)c2sc3ccccc3c(=O)c2c1NCCN(C)C`, the activity change, negative = inhibition was inconclusive: -43.1%. With `CCOc1ccc(CNC(=O)CCCC(=O)n2nc(C)c3ccccc32)cc1` the activity change, negative = inhibition was inconclusive: -46.9%. With `O=C1/C(=C/c2cccnc2)SC(=S)N1Cc1ccco1` the activity change, negative = inhibition was inconclusive: -49.9%. With `Cn1c(=O)oc2cc(S(=O)(=O)NCc3ccc(Cl)cc3)ccc21` the activity change, negative = inhibition was inactive: 11.5%. With `COc1ccccc1-c1c(C)c(C)nc(N)c1C#N` the activity change, negative = inhibition was inactive: 2.62%. `COc1ccc2c(c1OC)C(=O)N1c3ccccc3SC21` (configuration not stated) was tested, and the activity change, negative = inhibition was inactive: -5.86%. `CN=c1scc(-c2ccco2)n1/N=C/c1ccc(O)c(O)c1` was tested, and the activity change, negative = inhibition was inconclusive: -42.3%. With `CC[C@H](C)NC(=O)c1ccc(Cn2c(=S)[nH]c3c([nH]c4ccc(OC)cc43)c2=O)cc1` the activity change, negative = inhibition was active: -64.1%. In the case of `Cc1ccc(C(=O)NC(=S)Nc2nc(-c3cccc([N+](=O)[O-])c3)cs2)c(Cl)c1`, the activity change, negative = inhibition was active: -89.3%. With `CCN(CC)c1ccc(NC(=O)CN2CCN(c3ccccc3OC)CC2)cc1` the activity change, negative = inhibition was inconclusive: -45.5%. For `COc1ccc(N/C(=C/[N+](=O)[O-])SC)cc1`, the activity change, negative = inhibition was inconclusive: -42.4%. For `COc1ccc(N2CCN(C(c3nnnn3CCc3ccccc3)C(C)C)CC2)cc1` (configuration not stated), the activity change, negative = inhibition was inactive: -0.566%. In the case of `COC(=O)/C=C\C(=O)Nc1cccc([N+](=O)[O-])c1`, the activity change, negative = inhibition was active: -90.5%. `CCCCOc1ccc(C(=O)N2CC(=O)Nc3ccc(Br)cc3C2c2ccc(F)cc2)cc1` (configuration not stated) was tested, and the activity change, negative = inhibition was inconclusive: -43.9%. In the case of `OCC1(Cc2cccc(C(F)(F)F)c2)CCN(Cc2cc3ccccc3o2)CC1`, the activity change, negative = inhibition was inconclusive: -43.5%. In the case of `Cc1c(C)c(C)c2[nH]c(-c3ccc4c(c3)OCO4)nc2c1C`, the activity change, negative = inhibition was inconclusive: -40.7%. `CCOC(=O)c1c(C)[nH]c(C(=O)N(C)Cc2cccc(OC)c2OC)c1C` was tested, and the activity change, negative = inhibition was inconclusive: -48.7%. With `Cc1cccc(NC(=O)CSc2nnc(-c3ccco3)c(-c3ccco3)n2)c1` the activity change, negative = inhibition was inconclusive: -55.1%. With `O=C(NCCC1=CCCCC1)C(=O)NCC1OCCCN1S(=O)(=O)c1ccccc1` (configuration not stated) the activity change, negative = inhibition was inactive: -5.24%. `O=C(CCCl)NCc1ccccc1` was tested, and the activity change, negative = inhibition was inactive: 21.4%. `COc1ccc(CCNC(=O)c2ccc3nc(Cc4ccccc4)oc3c2)cc1OC` was tested, and the activity change, negative = inhibition was inconclusive: -44%. In the case of `Cc1cc(NC(=O)COC(=O)C2CC(=O)N(c3ccc(Cl)cc3)C2)no1` (configuration not stated), the activity change, negative = inhibition was inconclusive: -52.6%. With `CCOC(=O)Cn1c(=O)oc2cc(S(=O)(=O)N3CCN(c4ccccc4OC)CC3)ccc21` the activity change, negative = inhibition was active: -64.7%. In the case of `O=C(/C=C/c1ccccc1O)c1ccco1`, the activity change, negative = inhibition was inconclusive: -40.9%. In the case of `CCN(CC)C(=S)SCC(=O)c1ccc(Br)cc1`, the activity change, negative = inhibition was inactive: -20.6%. For `Cc1sc(NC(=O)c2cccc([N+](=O)[O-])c2)c(C(N)=O)c1-c1ccc(C(C)(C)C)cc1`, the activity change, negative = inhibition was inactive: -8.1%. For `CN(C)CCN(Cc1ccccc1)S(=O)(=O)c1ccc(-c2cc(C(F)(F)F)on2)s1`, the activity change, negative = inhibition was inconclusive: -57%. With `CN(C)c1ccc(N/C=C/C(=O)c2ccco2)cc1` the activity change, negative = inhibition was active: -64.3%. With `C[n+]1c2n(c3ccccc31)N=C(c1ccc(-c3ccccc3)cc1)CS2` the activity change, negative = inhibition was inactive: -5.25%. In the case of `COc1ccc(-c2cn3ccccc3n2)cc1[N+](=O)[O-]`, the activity change, negative = inhibition was inconclusive: -41.4%. For `O=C(CCN1C(=O)/C(=C\c2ccccc2)SC1=S)NNC(=O)c1ccccc1O`, the activity change, negative = inhibition was inconclusive: -51.7%. `O=C(Oc1ccc(Cl)c2cccnc12)c1ccco1` was tested, and the activity change, negative = inhibition was inconclusive: -50%. In the case of `CCc1ccc(NC(=O)C2CCCCC2C(=O)O)cc1` (configuration not stated), the activity change, negative = inhibition was inactive: 11.5%. `Cc1ccc(NC(=O)CSc2nc(-c3ccc(C(C)(C)C)cc3)nc3cc(=O)[nH]n23)cc1C` was tested, and the activity change, negative = inhibition was inconclusive: -43.2%. With `Cc1ccc(S(=O)(=O)N(C)c2ccc(C(=O)Nc3cccc(C)n3)cc2)cc1` the activity change, negative = inhibition was inactive: -34.9%. For `CN(C)Cc1nc2c(c(=O)[nH]1)C1(CCCCC1)Cc1ccccc1-2`, the activity change, negative = inhibition was active: -61.9%. In the case of `COc1ccc(-c2c[n+](CC(=O)OC3CC(C)CCC3C(C)C)c3n2CCC3)cc1` (configuration not stated), the activity change, negative = inhibition was inconclusive: -41.7%. For `O=C1/C(=C/c2ccccc2)N=C(N2CCOCC2)N1c1cccc(Cl)c1`, the activity change, negative = inhibition was inconclusive: -43.1%. In the case of `Cc1cccc(N=C2NC(=O)/C(=C/c3cccs3)S2)c1`, the activity change, negative = inhibition was inconclusive: -58.1%. `O=C(CN1C(=O)C2C3CC(C(Br)C3Br)C2C1=O)OCC(=O)c1cccc([N+](=O)[O-])c1` (configuration not stated) was tested, and the activity change, negative = inhibition was inconclusive: -42%.
